Test results: PubChem BioAssay AID1768 (National Center for Advancing Translational Sciences (NCATS), 2009)
Where “and” joins values, the source holds several entries; their conditions need not be identical. Equal entries are not always repeated. Among all 270,000 compounds or so, about 620 (0.23%) were called active. The inconclusive results got no clear call from the source; some entries with a clear call stand among them for comparison. Calls follow the shape of the dose curve; as a rule, active = well fitted inhibition curve with a large enough effect in the polarisation, with a control signal flat (not every such curve was filed as active); inconclusive = small, poorly fitted or top-dose-only effect, or effect the other way, or a change in a side signal; inactive = no such curve, though single readings can be large or run the other way; the % refers to the polarisation. Potencies of inconclusive entries are doubtful fits and often do not repeat. A note “side channel” means that the fit belongs to a control or component signal, not to the main read-out.

These compounds were tested against Menin (Homo sapiens) (UniProt O00255) (assay: qHTS Assay for Inhibitors Targeting the Menin-MLL Interaction in MLL Related Leukemias: Competition With Texas Red Labeled MLL-derived Mutant Peptide). Conditions: fluorescence polarization; FP activity change, negative = inhibition: at 61.6 µM (top of the series).
For FP activity change, negative = inhibition in this document: % of control where 0% means no effect.
Potency is read from the fitted curve at half-maximal effect; tags tell the direction and shape of the fitted curve or compound fluorescence and quenching.

Chain of UniProt O00255 (O00255 whole entry, looked up): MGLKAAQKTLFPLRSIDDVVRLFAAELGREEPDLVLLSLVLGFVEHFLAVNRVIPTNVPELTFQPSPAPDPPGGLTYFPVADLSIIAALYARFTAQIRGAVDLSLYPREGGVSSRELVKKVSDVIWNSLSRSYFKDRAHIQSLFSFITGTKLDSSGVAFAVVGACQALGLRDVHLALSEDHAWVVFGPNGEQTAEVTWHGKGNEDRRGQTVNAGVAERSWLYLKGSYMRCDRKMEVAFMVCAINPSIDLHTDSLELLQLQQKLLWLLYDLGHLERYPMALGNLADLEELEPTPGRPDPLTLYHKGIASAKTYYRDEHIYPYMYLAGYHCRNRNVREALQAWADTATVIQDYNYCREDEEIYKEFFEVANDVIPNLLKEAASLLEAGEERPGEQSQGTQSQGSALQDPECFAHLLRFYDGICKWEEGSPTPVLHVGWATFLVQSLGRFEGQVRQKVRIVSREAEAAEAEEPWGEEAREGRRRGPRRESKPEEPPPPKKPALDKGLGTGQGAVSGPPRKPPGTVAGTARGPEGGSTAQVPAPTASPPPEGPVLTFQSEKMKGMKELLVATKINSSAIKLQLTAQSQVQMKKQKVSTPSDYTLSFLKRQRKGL

Row | SMILES | Potency | FP activity change, negative = inhibition
1 | COc1ccc(CCNc2ncnc3cc(OC)c(OC)cc23)cc1OC | inconclusive: 39.8 µM [inhibitor, single point] | –
2 | C=CCNC(=S)Nc1cccc2ccccc12 | inconclusive: 17.8 µM [quencher, side channel, single point] | –
3 | N=c1oc2c3c4c(cc2cc1C(=O)Nc1ccccc1)CCCN4CCC3 | – | inactive: -6.96%
4 | O=C(O)c1c[nH]c2ccc(S(=O)(=O)N3CCN(c4ccc(F)cc4)CC3)cc2c1=O | inconclusive: 12.6 µM [quencher, side channel, partial curve] | –
5 | Cc1cc(NC(=O)c2cnn3c(C(F)F)cc(-c4ccccc4)nc23)no1 | – | inactive: 4.49%
6 | Cc1ccc(N2C(=O)C3N=NN(CC(=O)N4N=C(c5ccccc5)CC4c4ccccc4)C3C2=O)cc1 (stereo unspecified) | inconclusive: 17.8 µM [fluorescent, side channel, partial curve] | –
7 | Cc1cc(C)nc(NC(=NCCc2c[nH]c3ccccc23)NC(=O)Nc2cccc([N+](=O)[O-])c2)n1 | inconclusive: 14.1 µM [quencher, side channel, partial curve] | –
8 | C/C(=N\NC(N)=S)C1=CCC2C3CC[C@H]4CC(O)CC[C@]4(C)C3CC[C@]12C (stereo partly specified) | inconclusive: 14.1 µM [fluorescent, side channel, partial curve] | –
9 | CCc1ccc(CNCc2ccc(OCC(O)CN(C)Cc3ccccc3)cc2)nc1 (stereo unspecified) | inconclusive: 7.08 µM [fluorescent, side channel, partial curve] | –
10 | CC1CCCCC12NC(=O)N(CC(=O)NC1CCCc3ccccc31)C2=O (stereo unspecified) | inconclusive: 39.8 µM [inhibitor, single point] | –
11 | COc1ccc(CCNC(=S)NCCc2c[nH]c3ccccc23)cc1 | inconclusive: 15.8 µM [quencher, side channel, partial curve] | –
12 | COC(=O)c1ccc(C(/C=C/[C@@H](C)C(=O)NCc2cc(C)n(C)n2)NC(=O)OCc2ccccc2)cc1 (stereo partly specified) | – | inactive: 0.429%
13 | O=C(CCN1C(=O)/C(=C/c2cccs2)SC1=S)Nc1cccc(C(=O)O)c1 | inconclusive: 39.8 µM [quencher, side channel, single point] | –
14 | CCSC1=NSC2=NC(=O)/C(=C\c3coc4ccccc4c3=O)C(=N)N12 | inconclusive: 17.8 µM [quencher, side channel, partial curve] | –
15 | CCOC(=O)c1[nH]c(C)c(CN(CCc2ccc(OC)c(OC)c2)C(=O)CCCC(=O)O)c1C | inconclusive: 39.8 µM [inhibitor, single point] | –
16 | CCOC(=O)CN(C(=O)CSc1nnc2c(n1)[nH]c1ccc(F)cc12)c1ccccc1 | inconclusive: 31.6 µM [quencher, side channel, single point] | –
17 | Cc1ccccc1NC(=O)CSc1n[nH]c(-c2ccccn2)n1 | – | inactive: -4.19%
18 | CCn1cc(C(=O)NCCc2ccccc2)c(=O)c2cc(S(=O)(=O)N(C)C)ccc21 | inconclusive: 17.8 µM [inhibitor, partial curve] | –

Row | SMILES | Potency | FP activity change, negative = inhibition
19 | CCOc1ccc(NC(=O)CC2C(=O)N(c3ccc(OC)cc3)C(=O)N2CCc2ccc(OC)c(OC)c2)cc1 (stereo unspecified) | inconclusive: 11.2 µM [quencher, side channel, partial curve] | –
20 | CCN1CCN(CC(=O)N2N=C(c3cccs3)CC2c2ccc(C)cc2)C(=O)C1=O (stereo unspecified) | inconclusive: 7.94 µM [fluorescent, side channel, full curve] | –
21 | CCN(CCCNC(=O)CSc1cc(=O)n(C)c2cc(Cl)ccc12)Cc1ccccc1 | inconclusive: 44.7 µM [fluorescent, side channel, partial curve] | –
22 | CCOC(=O)c1sc2nc3c(SCCC(=O)O)cc(C(=O)c4cc(OC)ccc4O)cn3c(=O)c2c1C | inconclusive: 7.08 µM [quencher, side channel, partial curve] | –
23 | Cn1nnnc1SCC(=O)Nc1nn(-c2ccccc2)nc1C(N)=O | inconclusive: 39.8 µM [fluorescent, side channel, single point] | –
24 | O=[N+]([O-])c1ccccc1N/N=C/c1c[nH]c2ccccc12 | inconclusive: 7.08 µM [quencher, side channel, partial curve] | –
25 | C=CCn1c(SCC(=O)Nc2sccc2C(N)=O)nc2ccccc2c1=O | inconclusive: 22.4 µM [quencher, side channel, single point] | –
26 | COC(=O)c1cccc(NC(=S)NCCC2=CCCCC2)c1 | inconclusive: 39.8 µM [quencher, side channel, single point] | –
27 | S=C1CCSc2ccc(Cl)cc2N1 | – | inactive: -22.9%
28 | OCCN1CCN(c2ncnc3c2c(-c2ccccc2)cn3-c2ccc(Br)cc2)CC1 | inconclusive: 2.51 µM [fluorescent, side channel, full curve] | –
29 | Cc1ccc(S(=O)(=O)N(C)c2ccc(C(=O)N3CCc4ccccc4C3)cc2)cc1 | inconclusive: 12.6 µM [inhibitor, partial curve] | –
30 | COC(=O)C[C@H]1c2ccccc2C2=C(C[C@@H](C)[C@H]3C(=O)N(c4ccccc4)C(=O)[C@@H]23)N1C(=O)OC | – | inactive: -14.8% [at 11.7 µM] and inactive: -2.7% [at 11.7 µM]
31 | Cc1ccc(NCc2nnc(SC(C)C(=O)N/N=C/c3ccc(C)o3)n2-c2ccccc2)cc1 (stereo unspecified) | inconclusive: 25.1 µM [fluorescent, side channel, partial curve] | –
32 | CNC(=O)/C=C/c1cc(C(=O)c2ccc(Cl)cc2Cl)cn1C | inconclusive: 11.2 µM [inhibitor, partial curve] | –
33 | C/C(=N\NC(=S)Nc1ccc(C(C)C)cc1)c1ccc2c(c1)OCO2 | inconclusive: 17.8 µM [quencher, side channel, partial curve] | –
34 | C=C(C)COc1ccc(-c2ncncc2-c2ccccc2)c(O)c1 | inconclusive: 28.2 µM [fluorescent, side channel, partial curve] | –
35 | CCOC(=O)Nc1nnc(-c2cccc(OC)c2)s1 | – | inactive: -12.7%
36 | O=P(c1ccccc1)(c1ccccc1)c1cc(Br)cc(Br)c1OCCO | inconclusive: 7.94 µM [fluorescent, side channel, partial curve] | –
